# Values joined by “and” are separate entries in the source; they are usually repeats but may differ in a detail not shown here. Identical values can stand only once. The whole screen tested about 420,000 compounds, of which about 64,000 (15%) were called active. The inconclusive results got no clear call from the source; some entries with a clear call stand among them for comparison. The call rests on the fitted dose curve; in most records, active means well fitted inhibition curve with a large enough effect; inconclusive means small, poorly fitted or top-dose-only effect; inactive means flat fitted curve, though single readings scatter. Potencies of inconclusive entries are doubtful fits and often do not repeat.
# Assay: qHTS for Inhibitors of human tyrosyl-DNA phosphodiesterase 1 (TDP1): qHTS in cells in absence of CPT; further: nearly all actives have a fitted effect of over 55% in size
# Settings: DT40 Tdp1-/- hTDP1 cells, no CPT, ATP luminescence, 48 h; activity change, negative = growth inhibition: at 46.2 µM (top of the series) unless noted
# Outline: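 Growth kinetics read by CellTiter-Glo luminescence after ≥48 hr at 37 °C. Cells: DT40 Tdp1-/- stably carrying human TDP1, 400 per well, compound exposure in the absence of CPT (DMSO vehicle).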
# On the % scale 0 is the no-effect control and ±100 the full control effect; potency means the concentration at half of the fitted maximal effect; tags describe the fitted curve by direction and shape.
SMILES,Potency,"activity change, negative = growth inhibition"
C[C@@]1([C@@H](NP(=O)(c2ccccc2)c2ccccc2)c2ccccc2)C[C@H]1CCO,active: 18.4 µM,
CC/C(=N\NC(=O)c1ccccc1O)c1c(O)n(C2CCCCC2)c(=O)[nH]c1=O,,inactive: 12.6%
CN1CCN(c2ccc([N+](=O)[O-])c(NCc3ccco3)c2)CC1,"inconclusive: 20.6 µM [inhibitor, single point]",
O=C(COc1ccc(Cl)cc1)N1CCN(C/C=C/c2ccccc2)CC1,"inconclusive: 20.6 µM [inhibitor, single point]",
CCOc1ccc(N2C(=O)/C(=C/c3ccco3)C(=O)NC2=S)cc1,,inactive: -0.257%
Cn1nc(C(C)(C)C)cc1C(=O)N1CCCCC1c1cc(C(=O)Nc2ccc(F)c(Cl)c2)no1 (stereo not given),"inconclusive: 23.1 µM [inhibitor, partial curve, poor fit]",
Cc1cccc(C2=NCC(=O)N(CC(=O)NCc3ccco3)c3sc4c(c32)CCCC4)c1,"inconclusive: 29.1 µM [inhibitor, single point]",
Cc1ccc2nc(N3CCC(C(=O)N4CCC5(CC4)OCCO5)CC3)sc2c1,"inconclusive: 25.9 µM [inhibitor, single point]",
C=CCC1(Cc2ccsc2)C(=O)NC(=O)NC1=O,,inactive: -10.3%
CN(C)C(CNC(=O)Cc1c(Cl)cccc1Cl)c1ccccc1 (stereo not given),,inactive: 12.7%
COc1ccc(-n2c(=S)[nH]c3ccc(C)cc3c2=O)cc1,,inactive: -4.17%
CCOC(=O)C1=C(N)OC2=C(C(=O)CCC2)C12C(=O)N(C)c1ccccc12 (stereo not given),,inactive: -4.25%
CCOC(=O)C(O)(c1ccc(NC(=O)c2ccco2)c(OC)c1)C(F)(F)F (stereo not given),"inconclusive: 5.8 µM [inhibitor, partial curve, poor fit]",
Cc1ccc(NC(=O)N(Cc2ccc3c(c2)OCO3)C2CCN(Cc3ccccc3)CC2)cc1C,active: 29.1 µM,
C=CC[C@H](CC(=O)N(CCO)Cc1ccccc1)C(=O)NC[C@H](OC(=O)[C@@H](CC=C)CC(=O)OC(C)(C)C)c1ccccc1,active: 23.1 µM,
Nc1ccc(Sc2ccc(N)cc2)cc1,"inconclusive: 38.6 µM [inhibitor, single point] and inconclusive: 461 nM [inhibitor, full curve, poor fit]",
Cc1nnc2n1-c1sc(CCc3ccc(CC(C)C)cc3)cc1C(c1ccccc1Cl)=NC2C (stereo not given),active: 11.9 µM,
CC(C)(C)C(=O)N1Cc2cc(-c3cccc(F)c3)ccc2-n2nncc2C1,"inconclusive: 29.1 µM [inhibitor, single point]",
COc1ccc(N2C(=O)/C(=C/c3ccco3)C(=O)NC2=S)cc1,"inconclusive: 25.9 µM [inhibitor, single point]",
COc1ccc(CCN(C)Cc2ccncc2)cc1OC,,inactive: -17.1%
C[C@]12[C@H](O)CC3C(CC[C@@H]4C[C@@H](O)CC[C@]34C)[C@@]1(O)CC[C@@H]2C1=CC(=O)OC1 (stereo not given in full),"inconclusive: 26.6 µM [inhibitor, partial curve, poor fit]",
COc1ccc2c(c1)c(C(=O)O)c(C)n2CC(C)C,,inactive: -8.9%
O=C1NC(=O)C(CCc2ccncc2)(CCc2ccncc2)C(=O)N1C1CCCCC1,"inconclusive: 20.6 µM [inhibitor, single point]",

SMILES,Potency,"activity change, negative = growth inhibition"
CCn1nc(/C=C/c2ccccc2)nc2c(=O)n(C)c(=O)nc1-2,active: 2.06 µM,
CC(=O)Nc1ccc(S(=O)(=O)N2Cc3cnnn3-c3ccccc3C2C#N)cc1 (stereo not given),,inactive: 4.7%
CCCCC(=O)N/N=C/c1c(O)n(CC)c(=S)n(CC)c1=O,active: 10.3 µM,
COc1ccc(CCNc2oc(-c3ccc(OC)c(OC)c3)nc2P(=O)(OC)OC)cc1OC,"inconclusive: 23.1 µM [inhibitor, single point]",
Cc1nc2ccc(Nc3nc4cc(S(=O)(=O)N5CCOCC5)ccc4o3)cc2s1,active: 18.4 µM,
CO/C=C(/C(=O)OC)c1ccccc1Oc1cc(Oc2ccccc2C#N)ncn1,active: 0.217 µM,
CC12CCC3C(CC=C4CC5(CCC43C)OCCO5)C1CCC2=O (stereo not given),"inconclusive: 20.6 µM [inhibitor, single point]",
COc1cccc(C2(C#N)CCN(C)CC2)c1,,inactive: 12.5%
CCOc1cccc(=NC2CCCCC2)c2c(C)[nH]c(C)c12,active: 5.8 µM,
O=[N+]([O-])c1ccc2c(c1)Cc1cc(O)ccc1-2,"inconclusive: 25.9 µM [inhibitor, single point]",
Cc1ccc(Cl)cc1Nc1nn2c(=O)c3ccc(C(=O)NCc4cccs4)cc3nc2s1,active: 16.4 µM,
C=CCNc1nnc(Sc2ncccc2[N+](=O)[O-])s1,active: 7.31 µM,
Cc1oc(-c2ccccc2F)nc1CS(=O)CC(=O)N1CCC2(CC1)OCCO2 (stereo not given),,inactive: -1.3%
CC[C@]1(O)CC(O[C@@H]2CC(N(C)C)C(O)C(C)O2)c2c(cc3c(c2O)C(=O)c2c(O)ccc(O)c2C3=O)C1C(=O)OC (stereo not given in full),active: 1.3 µM,
CCCCn1c(O)c(C(CC)=Nc2ccc(OCC)cc2)c(=O)[nH]c1=O,active: 20.6 µM,
COc1ccc(CNC(=O)/C=C/c2ccc3[nH]cc(CCN(C)C)c3c2)cc1,inactive,
COC1C(O)C(C)O[C@H](OC2CC[C@@]3(C=O)C4CC[C@]5(C)C(C6=CC(=O)OC6)CC[C@@]5(O)C4CC[C@@H]3C2)C1O (stereo not given in full),active: 0.366 µM,
O=c1[nH]c2ccccc2n1C1CCN(C(c2nnnn2C2CCCC2)C2CC2)CC1 (stereo not given),"inconclusive: 18.4 µM [inhibitor, single point]",
O=C(CSc1nc2c([nH]c3ccccc32)c(=O)n1-c1ccccc1)c1ccccc1,"inconclusive: 13 µM [inhibitor, single point]",
COc1cc2c(cc1OC)C(C(=O)N(C)C1CCCCC1)C1CCCCN1C2=O (stereo not given),"inconclusive: 0.0164 µM [inhibitor, full curve, poor fit]",
CCOC(=O)C(O)(c1ccc(N(CC)S(=O)(=O)c2ccccc2)cc1)C(F)(F)F (stereo not given),"inconclusive: 16.4 µM [inhibitor, partial curve]",
CCOC(=O)c1c(NC(=O)c2c(N)n(CCCOC)c3nc4ccccc4nc23)sc2c1CCCC2,"inconclusive: 11.2 µM [inhibitor, partial curve]",

# Source: PubChem BioAssay AID686978 (National Center for Advancing Translational Sciences (NCATS), 2013)
